37 sequences from paper PMC5892938 can be followed below.

This is one part of the list. At the low end of the ranking the order means little.

The target in this assay is GST-SBP-SLBP (stem-loop binding protein) (UniProt Q14493). Put plainly: targeted RNA Bind-n-Seq.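 Further: DESeq read counts versus GST-SBP nonspecific binding control pulldown.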 Particulars: RBNS binding buffer: 25 mM Tris pH 7.5, 150 mM KCl, 3 mM MgCl2, 0.1% Tween, 0.5 mg/mL BSA, 1 mM DTT; 27 nM protein, 750 pM RNA pool; temperature not stated; high values mean tight binding.
Regarding “GGUCACGUCUCAAUCAACUCUAUUCCCAGGGAAACCCCUGGCAUUCUCAACAGCUCGCAGUCAAG”, the binding signal (log2 fold change) is -0.255. The figure for “GGUCACGUCUCAAUCAACUCUUUUUCCAGGGAAAUCCCUGGCUUUUUCAACAGCUCGCAGUCAAG” is 0.0417. As for “GGUCACGUCUCAAUCAACUCAUCGCCAGGAGUUUGCUCCUGCUUUUUCAACAGCUCGCAGUCAAG”, the binding signal (log2 fold change) was -0.142.

In the case of “GGUCACGUCUCAAUCAACUCUACUCCCAGGGAAACCCCUGGCUUUCUCAACAGCUCGCAGUCAAG”, the binding signal (log2 fold change) was 0.191.

For the sequence “GGUCACGUCUCAAUCAACUCAUCUCCCAGGGAAAUCCCUGGCUUACUCAACAGCUCGCAGUCAAG”, the binding signal (log2 fold change) was -0.332.

As to “GGUCACGUCUCAAUCAACUCAUCGUCCAGGGAAAUCCCUGGUAAUUUCAACAGCUCGCAGUCAAG”, the binding signal (log2 fold change) came to 0.0193. The figure for “GGUCACGUCUCAAUCAACUCAUUAGAGGGGGGGAAAACCCCUUUACCCUCCCAAUCAACAGCUCGCAGUCAAG” is -0.238; for “GGUCACGUCUCAAUCAACUCAGUCUCCAGGGAAACCCCUGGCUUUCUCAACAGCUCGCAGUCAAG” it is -0.328. With “GGUCACGUCUCAAUCAACUCAUCCCCAGGAGUUUGCUCCUGUAAUCUCAACAGCUCGCAGUCAAG”, the binding signal (log2 fold change) came to 0.242. The figure for “GGUCACGUCUCAAUCAACUCAUCGCCAGGAGUUUACUCCUGUAUUCUCAACAGCUCGCAGUCAAG” is 0.0949; for “GGUCACGUCUCAAUCAACUCUUAAGAGGGGGGGAAAACCCCUUUGCCCUCAAUAUCAACAGCUCGCAGUCAAG” it is -0.235; for “GGUCACGUCUCAAUCAACUCAGUUUCCAGGGAAAACCCUGGUUUAUUCAACAGCUCGCAGUCAAG” it is -0.0345.

With “GGUCACGUCUCAAUCAACUCAACUCCAGGAGUUUGCUCCUGUAUACUCAACAGCUCGCAGUCAAG”, the binding signal (log2 fold change) stood at 0.238. As for “GGUCACGUCUCAAUCAACUCUUCCUCCAGGGAAACCCCUGGCAAUUUCAACAGCUCGCAGUCAAG”, the binding signal (log2 fold change) was 0.161.

Take “GGUCACGUCUCAAUCAACUCAUCCCCCAGGGAAACCCCUGGCUUAUUCAACAGCUCGCAGUCAAG”: the binding signal (log2 fold change) stood at 0.00126. The figure for “GGUCACGUCUCAAUCAACUCUAUGUCAGGAGUUUACUCCUGUUAAUUCAACAGCUCGCAGUCAAG” is 0.0399; for “GGUCACGUCUCAAUCAACUCAUUCCCCAGGGAAAGCCCUGGCUAAUUCAACAGCUCGCAGUCAAG” it is -0.318. In the case of “GGUCACGUCUCAAUCAACUCCAUCGAGGGGGGGAAAACCCCUUUACCCUCUAAAUCAACAGCUCGCAGUCAAG” it was -0.927; in that of “GGUCACGUCUCAAUCAACUCUAUUUCCAGGGAAAACCCUGGUAUACUCAACAGCUCGCAGUCAAG”, 0.197; in that of “GGUCACGUCUCAAUCAACUCUAUCCCAGGAGUUUACUCCUGUAUUUUCAACAGCUCGCAGUCAAG”, -0.144. With “GGUCACGUCUCAAUCAACUCAAUAGAGGGGGGGAAAACCCCUUUACCCUCACACUCAACAGCUCGCAGUCAAG”, the binding signal (log2 fold change) is -0.278. The figure for “GGUCACGUCUCAAUCAACUCUUUUUCCAGGGAAAGCCCUGGUAAUCUCAACAGCUCGCAGUCAAG” is -0.0749; for “GGUCACGUCUCAAUCAACUCAUAGGAGGGGGGGAAAACCCCUUUACCCUCAACUUCAACAGCUCGCAGUCAAG” it is 0.451. The figure for “GGUCACGUCUCAAUCAACUCUUCUCCAGGAGUUUUCUCCUGCAAACUCAACAGCUCGCAGUCAAG” is 0.154; for “GGUCACGUCUCAAUCAACUCUAUUCCCAGGGAAAACCCUGGUUAACUCAACAGCUCGCAGUCAAG” it is 0.153. Turning to “GGUCACGUCUCAAUCAACUCUUCCUCAGGAGUUUACUCCUGCUUUCUCAACAGCUCGCAGUCAAG”, the binding signal (log2 fold change) came to 0.0936. The figure for “GGUCACGUCUCAAUCAACUCCAUAGAGGGGGGGAAAACCCCUUUACCCUCCAUUUCAACAGCUCGCAGUCAAG” is -0.0593; for “GGUCACGUCUCAAUCAACUCAAAAGAGGGGGGGAAAACCCCUUUGCCCUCGUAUUCAACAGCUCGCAGUCAAG” it is -0.0764.

In the case of “GGUCACGUCUCAAUCAACUCCAUCGAGGGGGGGAAAACCCCUUUACCCUCACAAUCAACAGCUCGCAGUCAAG”, the binding signal (log2 fold change) was -0.0376. In the case of “GGUCACGUCUCAAUCAACUCUCUAGAGGGGGGGAAAACCCCUUUACCCUCAUCUUCAACAGCUCGCAGUCAAG” it was -0.0105; in that of “GGUCACGUCUCAAUCAACUCAGUUCCCAGGGAAACCCCUGGCAUAUUCAACAGCUCGCAGUCAAG”, -0.164. “GGUCACGUCUCAAUCAACUCAACAGAGGGGGGGAAAACCCCUUUACCCUCACACUCAACAGCUCGCAGUCAAG”: the binding signal (log2 fold change) was -0.0691. In the case of “GGUCACGUCUCAAUCAACUCAUUCGCAGGAGUUUCCUCCUGGUAUUUCAACAGCUCGCAGUCAAG” it was -0.00859; in that of “GGUCACGUCUCAAUCAACUCAAUUCCCAGGGAAACCCCUGGUUUACUCAACAGCUCGCAGUCAAG”, 0.184; in that of “GGUCACGUCUCAAUCAACUCAGUCUCAGGAGUUUCCUCCUGCAUAUUCAACAGCUCGCAGUCAAG”, -0.108. In the case of “GGUCACGUCUCAAUCAACUCCCUAGAGGGGGGGAAAACCCCUUUACCCUCGUCCUCAACAGCUCGCAGUCAAG” it was -0.186; in that of “GGUCACGUCUCAAUCAACUCAUAAGAGGGGGGGAAAACCCCUUUGCCCUCACCGUCAACAGCUCGCAGUCAAG”, 0.0521.
